Source: the antibiotic and cytotoxicity screens of Wong et al. (2023)
Some of the results follow.

Tested on: S. aureus RN4220
Assay: growth inhibition call (relative growth <= 0.2)
Conditions: 50 µM

Question: Which growth inhibition call does the source give for `O=C(C[C@H]1CC[C@H]2[C@@H](COC[C@@H](O)CN2C(=O)Nc2ccc(C(F)(F)F)cc2)O1)NCc1ccncn1` here?
Answer: inactive

Question: `OC[C@H]1CC[C@@H]2O[C@H](CCc3ccc(C#CCc4ccccc4)cc3)[C@@H](n3cc(-c4ccccc4)nn3)C[C@@H]2O1` was tested. Which growth inhibition call did it give?
Answer: inactive

Question: Which growth inhibition call does the source give for `Clc1cccc(Cl)c1CSCc1cc2ccccc2o1` here?
Answer: inactive

Question: `CS(=O)(=O)N1[C@@H]2c3ccc(C4=CCCCC4)c(=O)n3C[C@H]1[C@H](CO)[C@H]2C(=O)N1CCOCC1` was tested. Which growth inhibition call did it give?
Answer: inactive

Question: Which growth inhibition call does the source give for `COc1cccc(C#Cc2ccc3c(c2)O[C@H](CN(C)S(=O)(=O)c2ccccc2F)[C@H](C)CN([C@H](C)CO)S3(=O)=O)c1` here?
Answer: inactive

Question: `C[C@@H]1CN([C@@H](C)CO)C(=O)c2cccc(NC(=O)Nc3ccc4c(c3)OCO4)c2O[C@H]1CN(C)S(C)(=O)=O` was tested. Which growth inhibition call did it give?
Answer: inactive

Question: With `COCC(=O)N1C[C@H](C)[C@@H](OC)CN(C)C(=O)c2ccc(NC(=O)c3ccc(F)cc3)cc2OC[C@H]1C` as the compound, how does the growth inhibition call read?
Answer: inactive

Question: For `COc1ccc(S(=O)(=O)N(C)C[C@@H]2Oc3cc(C4=CCCC4)ccc3S(=O)(=O)N([C@H](C)CO)C[C@@H]2C)cc1`, which growth inhibition call is on record?
Answer: inactive

Question: `COc1ccc(C[C@H](N)C(=O)N[C@H]2[C@@H](O)[C@H](n3cnc4c(N(C)C)ncnc43)O[C@@H]2CO)cc1` was tested. Which growth inhibition call did it give?
Answer: active

Question: How did the growth inhibition call turn out when `O=C(Cc1n[nH]c(=O)[nH]1)NCc1n[nH]c2c1CCCCC2` was run?
Answer: inactive

Question: `CCCNC(=O)N1C[C@]2(CN(C2)S(=O)(=O)c2cccc(c2)OC)c2c(n(c3cc(ccc23)OC)C)[C@H]1CO` was tested. Which growth inhibition call did it give?
Answer: inactive

Question: How did the growth inhibition call turn out when `CCCCN(C/C=C/c1ccccc1OC)Cc1ccccc1` was run?
Answer: inactive

Question: How did the growth inhibition call turn out when `CC(C)CC#Cc1ccc2c(c1)O[C@H](CN(C)CC1CCOCC1)[C@@H](C)CN([C@H](C)CO)S2(=O)=O` was run?
Answer: inactive

Question: With `C[C@@H]1CN([C@H](C)CO)C(=O)c2cc(NC(=O)Nc3ccccc3)ccc2O[C@@H](C)CCCCO[C@@H]1CN(C)C(=O)C1CCCCC1` as the compound, how does the growth inhibition call read?
Answer: inactive

Question: For `C[C@H](CO)N1C[C@H](C)[C@@H](CN(C)C(=O)Nc2cccc(Cl)c2Cl)OCc2ccccc2-c2c(n(C)c3ccccc23)C1=O`, which growth inhibition call is on record?
Answer: inactive

Question: For `COc1ccc(NC(=O)Nc2ccc3c(c2)C(=O)N([C@H](C)CO)C[C@H](C)[C@H](CN(C)Cc2ccc(Oc4ccccc4)cc2)O3)cc1`, which growth inhibition call is on record?
Answer: inactive

Question: How did the growth inhibition call turn out when `C[C@@H](O[C@H]1OCCN(Cc2n[nH]nc2CN(C)C)[C@H]1c1ccc(F)cc1)c1cc(C(F)(F)F)cc(C(F)(F)F)c1` was run?
Answer: active

Question: `C[C@H](CO)N1C[C@H](C)[C@H](CN(C)Cc2ccccc2)Oc2ccc(NC(=O)Nc3cccc4ccccc34)cc2C1=O` was tested. Which growth inhibition call did it give?
Answer: inactive

Question: For `Cc1ccc(S(=O)(=O)Nc2ccc3c(c2)C(=O)N([C@H](C)CO)C[C@H](C)[C@@H](CN(C)Cc2ccc4c(c2)OCO4)OCCCC[C@H](C)O3)cc1`, which growth inhibition call is on record?
Answer: inactive

Question: With `CCC[C@@H]1C[C@@H](C(=O)N[C@H]([C@H]2O[C@H](SC)[C@H](O)[C@@H](O)[C@H]2O)[C@@H](C)Cl)N(C)C1` as the compound, how does the growth inhibition call read?
Answer: active

Question: Which growth inhibition call does the source give for `C[C@@H]1CN([C@@H](C)CO)C(=O)c2cccc(NC(=O)c3ccc(-c4nccs4)cc3)c2O[C@@H]1CN(C)C(=O)Nc1cccc2ccccc12` here?
Answer: inactive

Question: How did the growth inhibition call turn out when `Cc1ccc(S(=O)(=O)Nc2cc([C@@H](C(=O)OC(C)C)C(=O)C(F)(F)F)c(O)c3ccccc23)c(C)c1` was run?
Answer: inactive

Question: `O=C(C[C@@H]1CC=CC[C@H](NC(=O)OCC2c3ccccc3-c3ccccc32)C(=O)O[C@H](c2ccccc2)CNC1=O)N[C@@H](CO)Cc1ccccc1` was tested. Which growth inhibition call did it give?
Answer: inactive

Question: With `COc1ccc(S(=O)(=O)N(C)C[C@@H]2Oc3ncc(C#Cc4ccc(OC)c(OC)c4)cc3C(=O)N([C@H](C)CO)C[C@@H]2C)cc1` as the compound, how does the growth inhibition call read?
Answer: inactive

Question: `CO[C@@H]1CN(C)C(=O)c2cc(NS(C)(=O)=O)ccc2OC[C@H](C)N(C(=O)C2CCOCC2)C[C@@H]1C` was tested. Which growth inhibition call did it give?
Answer: inactive

Question: With `C[C@@H]1CN([C@H](C)CO)C(=O)Cc2cc(NC(=O)c3ccncc3)ccc2O[C@H]1CN(C)C(=O)Nc1ccc2c(c1)OCO2` as the compound, how does the growth inhibition call read?
Answer: inactive

Question: For `CC(C)CC#Cc1ccc2c(c1)O[C@H](CN(C)C(=O)Cc1ccccn1)[C@H](C)CN([C@H](C)CO)S2(=O)=O`, which growth inhibition call is on record?
Answer: inactive

Question: For `O=C(C[C@H]1C[C@H]2c3cc(NC(=O)c4cccnc4)ccc3O[C@H]2[C@H](CO)O1)NCc1cc(F)ccc1F`, which growth inhibition call is on record?
Answer: inactive

Question: Which growth inhibition call does the source give for `O=S(=O)([O-])CCCS(=O)(=O)[O-].[Na+].[Na+]` here?
Answer: inactive

Question: For `C[C@H](CO)N1C[C@H](C)[C@H](CN(C)S(=O)(=O)c2cn(C)cn2)Oc2ncc(-c3cc4ccccc4o3)cc2C1=O`, which growth inhibition call is on record?
Answer: inactive

Question: `Cc1ccc(S(=O)(=O)N(C)C[C@H]2Oc3ccc(NC(=O)Cn4cnnn4)cc3C(=O)N([C@@H](C)CO)C[C@H]2C)cc1` was tested. Which growth inhibition call did it give?
Answer: inactive

Question: For `Cc1ccc(S(=O)(=O)Nc2ccc3c(c2)C(=O)N([C@H](C)CO)C[C@H](C)[C@@H](CN(C)C(=O)Nc2ccccc2)OCCCC[C@@H](C)O3)cc1`, which growth inhibition call is on record?
Answer: inactive

Question: For `CC(C)NC(=O)N(C)C[C@H]1Oc2c(NC(=O)C3CCOCC3)cccc2C(=O)N([C@H](C)CO)C[C@@H]1C`, which growth inhibition call is on record?
Answer: inactive

Question: `C[C@H](CO)N1C[C@H](C)[C@@H](CN(C)Cc2ccncc2)Oc2ccc(NC(=O)CCCN(C)C)cc2C1=O` was tested. Which growth inhibition call did it give?
Answer: inactive

Question: With `O=C(C[C@@H]1C[C@@H]2c3cc(NC(=O)NC4CCCC4)ccc3O[C@@H]2[C@H](CO)O1)NCCN1CCCCC1` as the compound, how does the growth inhibition call read?
Answer: inactive

Question: For `C[C@@H]1CN([C@@H](C)CO)C(=O)Cc2cc(NS(=O)(=O)c3cn(C)cn3)ccc2O[C@H]1CN(C)CC1CC1`, which growth inhibition call is on record?
Answer: inactive

Question: `COc1ccc(NC(=O)N(C)C[C@@H]2Oc3ccc(NC(=O)Nc4cccc5ccccc45)cc3CC(=O)N([C@H](C)CO)C[C@@H]2C)cc1` was tested. Which growth inhibition call did it give?
Answer: inactive

Question: `O=C(C[C@H]1CC[C@@H]2[C@H](COC[C@@H](O)CN2C(=O)Nc2ccc(Cl)cc2)O1)NCCc1ccncc1` was tested. Which growth inhibition call did it give?
Answer: inactive

Question: Which growth inhibition call does the source give for `COc1cccc(c1)CN1CC[C@]2(CC1)CN([C@H](CO)c1c2c2ccc(cc2n1C)OC)C(=O)Nc1ccc(cc1)F` here?
Answer: inactive

Question: `C[C@H](CO)N1C[C@H](C)[C@H](CN(C)S(=O)(=O)c2ccccc2)Oc2ccc(NS(=O)(=O)c3ccccc3)cc2CC1=O` was tested. Which growth inhibition call did it give?
Answer: inactive
